Here are results for one molecule from patent US5972902, “DNA encoding human IL-6 receptor antagonist and protein encoded thereby” (dated 1999).

The target in one assay is gp130 (Homo sapiens (Human), UniProt P40189). Briefly: cell-based or functional assay.
The target of another assay is hIL-6 receptor (human, UniProt P08887). Briefly: receptor binding assay by the method of Savino et al. 1994. The protocol:
The proteins IL-6 DFRD/D160R (coded by the cDNA described in SEQ ID NO:4), IL-6 DFRD/W157R/D160R (coded by the cDNA described in SEQ ID NO:5) and IL-6 DFRD/T162D (coded by the cDNA described in SEQ ID NO:6) were produced according to the state of the art, as described (Arcone, R., Pucci, P., Zappacosta, F., Fontaine, V., Malorni, A., Marino, G., and Ciliberto, G., Eur. J. Biochem. 198, 541–547, 1991). The ability of the mutants to bind to the hIL-6 receptor was measured using state of the art methods, as described (Savino, R., Lahm, A., Salvati, A. L., Ciapponi, L., Sporeno, E., Altamura, S., Paonessa, G., Toniatti, C., Ciliberto, G., EMBO J. 13, 1357–1367, 1994). Table 1 below gives the receptor binding levels for wild type IL-6 and for the mutant forms obtained as described in example 1.

B1: wild type human interleukin-6 (ligand)
chain: not shown
As to B1, the “Biological activity on human hepatoma cells” value in the assay with gp130 is 100%. Also, in the assay with hIL-6 receptor, the “ability to bind to the IL-6 receptor (% of wild type)” value was found to be 100%.
